# Laboratory results from the supplement of paper PMC10037445.
# “And” between values parts separate entries of the source, which are not always exact repeats. Identical values can stand only once. Whole data set: some 2,900 compounds, median “NF-kB SEAP reporter activity, fold change vs agonist alone” near 0.99, cut for the highest 2% near 2.6. This is one part of the list.
# Key:
# [1] = test system: RAW-Dual; experiment: NF-kB SEAP reporter activity, fold change vs agonist alone; higher = enhanced NF-kB activity
# Summary of the method: (§1)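 Library stock was pin-tooled at 50 nL into 384-well plates of RAW-Dual macrophages (50,000 cells/well, DMEM), followed 1 h later by a PRR agonist, and the cells were kept at 37 °C, 5% CO2. Supernatant collected after 20 hours was read for IRF by QuantiLuc luminescence and for NF-κB by QuantiBlue absorbance at 620 nm. Reporter activity is fold change over agonist-alone wells, and a well counted as cytotoxic when its IncuCyte confluency was below 70% of agonist controls in both mask sets.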
# [2] = test system: RAW-Dual; experiment: NF-kB SEAP reporter activity, fold change vs agonist alone; cytotoxicity flag (confluency mask): not cytotoxic; higher = enhanced NF-kB activity
# Summary of the method: as §1
# [3] = test system: RAW-Dual; experiment: NF-kB SEAP reporter activity, fold change vs agonist alone; cytotoxicity flag (confluency mask): cytotoxic (confluency <70% of control); higher = enhanced NF-kB activity
# Summary of the method: as §1
# [4] = library stock concentration (final ~1000-fold dilution): 10 mM, cytotoxicity flag (confluency mask): not cytotoxic, agonist: Imiquimod (TLR7) […]
# [5] = library stock concentration (final ~1000-fold dilution): 10 mM, cytotoxicity flag (confluency mask): not cytotoxic, agonist: MPLA (TLR4) […]
# [6] = agonist: ODN 1826 (TLR9) 0.5 ug/mL
# [7] = agonist: Pam2CSK4 (TLR2/6) 0.1 ug/mL
# [8] = agonist: Pam3CSK4 (TLR2/1) 0.1 ug/mL
# [9] = library stock concentration (final ~1000-fold dilution): 10 mM, cytotoxicity flag (confluency mask): cytotoxic (confluency <70% of control), agonist: Imiquimod (TLR7) […]
# [10] = library stock concentration (final ~1000-fold dilution): 10 mM, cytotoxicity flag (confluency mask): cytotoxic (confluency <70% of control), agonist: MPLA (TLR4) […]
smiles,measurement,setting,value
COC1CC2CCC(C)C(O)(O2)C(=O)C(=O)N2CCCCC2C(=O)OC(C(C)CC2CCC(OC(=O)C(C)(CO)CO)C(OC)C2)CC(=O)C(C)C=C(C)C(O)C(OC)C(=O)C(C)CC(C)C=CC=CC=C1C (configuration not stated),NF-kB SEAP reporter activity,[1]; [4],2.36
same,NF-kB SEAP reporter activity,[1]; [5],2.41
COc1cc(N2CCC(N3CCN(C)CC3)CC2)ccc1Nc1ncc(Cl)c(Nc2ccccc2S(=O)(=O)C(C)C)n1 (library stock concentration (final ~1000-fold dilution): 2 mM),NF-kB SEAP reporter activity,[2]; agonist: LPS (TLR4) 0.1 ug/mL,1.66
same,NF-kB SEAP reporter activity,[2]; [6],0.603
same,NF-kB SEAP reporter activity,[2]; [7],0.757
same,NF-kB SEAP reporter activity,[2]; [8],1.2
COc1cc(N2CCC(N3CCN(C)CC3)CC2)ccc1Nc1ncc(Cl)c(Nc2ccccc2S(=O)(=O)C(C)C)n1,NF-kB SEAP reporter activity,"[1]; library stock concentration (final ~1000-fold dilution): 2 mM, cytotoxicity flag (confluency mask): not cytotoxic, agonist: Imiquimod (TLR7) […]",1.28
same,NF-kB SEAP reporter activity,"[1]; library stock concentration (final ~1000-fold dilution): 2 mM, cytotoxicity flag (confluency mask): not cytotoxic, agonist: MPLA (TLR4) […]",0.939
CC1CCc2cc(F)cc3c(=O)c(C(=O)O)cn1c23 (configuration not stated),NF-kB SEAP reporter activity,[1]; [4],0.483
same,NF-kB SEAP reporter activity,[1]; [5],0.674
CC1CCc2cc(F)cc3c(=O)c(C(=O)O)cn1c23 (configuration not stated) (library stock concentration (final ~1000-fold dilution): 10 mM),NF-kB SEAP reporter activity,[2]; agonist: LPS (TLR4) 0.1 ug/mL,1.02
same,NF-kB SEAP reporter activity,[2]; [6],0.966
same,NF-kB SEAP reporter activity,[2]; [7],0.993
same,NF-kB SEAP reporter activity,[2]; [8],0.838
COc1ccccc1OCCNCC(O)COc1cccc2[nH]c3ccccc3c12 (configuration not stated) (library stock concentration (final ~1000-fold dilution): 10 mM),NF-kB SEAP reporter activity,[2]; agonist: LPS (TLR4) 0.1 ug/mL,0.6 and 0.708
same,NF-kB SEAP reporter activity,[2]; [6],0.185 and 0.196
same,NF-kB SEAP reporter activity,[2]; [7],0.801 and 0.766
same,NF-kB SEAP reporter activity,[2]; [8],0.633 and 0.714
COc1cc2c(cc1OC)-c1cc3nc4ccccc4nc3n1C(C)(C)C2 (library stock concentration (final ~1000-fold dilution): 10 mM),NF-kB SEAP reporter activity,[3]; agonist: LPS (TLR4) 0.1 ug/mL,0.843
same,NF-kB SEAP reporter activity,[3]; [6],0.2
same,NF-kB SEAP reporter activity,[3]; [7],0.183
same,NF-kB SEAP reporter activity,[3]; [8],0.135
COc1cc2c(cc1OC)-c1cc3nc4ccccc4nc3n1C(C)(C)C2,NF-kB SEAP reporter activity,[1]; [9],0.621
same,NF-kB SEAP reporter activity,[1]; [10],0.511
Oc1cc(O)c2c(c1)OC(c1ccc(O)c(O)c1)C(O)[C@H]2c1c(O)cc(O)c2c1OC(c1ccc(O)c(O)c1)C(O)C2 (some centres not stated) (library stock concentration (final ~1000-fold dilution): 10 mM),NF-kB SEAP reporter activity,[2]; agonist: LPS (TLR4) 0.1 ug/mL,1.28
same,NF-kB SEAP reporter activity,[2]; [6],1.06
same,NF-kB SEAP reporter activity,[2]; [7],1.08
same,NF-kB SEAP reporter activity,[2]; [8],1.17
Oc1cc(O)c2c(c1)OC(c1ccc(O)c(O)c1)C(O)[C@H]2c1c(O)cc(O)c2c1OC(c1ccc(O)c(O)c1)C(O)C2 (some centres not stated),NF-kB SEAP reporter activity,[1]; [4],0.823
same,NF-kB SEAP reporter activity,[1]; [5],1.01
Nc1cccc(-c2cc3c(Oc4cccc(O)c4)ncnc3[nH]2)c1 (library stock concentration (final ~1000-fold dilution): 10 mM),NF-kB SEAP reporter activity,[2]; agonist: LPS (TLR4) 0.1 ug/mL,0.316
same,NF-kB SEAP reporter activity,[2]; [6],0.796
same,NF-kB SEAP reporter activity,[2]; [7],0.5
same,NF-kB SEAP reporter activity,[2]; [8],0.521
Nc1cccc(-c2cc3c(Oc4cccc(O)c4)ncnc3[nH]2)c1,NF-kB SEAP reporter activity,[1]; [4],1.67
same,NF-kB SEAP reporter activity,[1]; [5],0.913
COc1ccc(C(C)=O)c(O)c1,NF-kB SEAP reporter activity,[1]; [4],0.79
same,NF-kB SEAP reporter activity,[1]; [5],1.04
COc1ccc(C(C)=O)c(O)c1 (library stock concentration (final ~1000-fold dilution): 10 mM),NF-kB SEAP reporter activity,[2]; agonist: LPS (TLR4) 0.1 ug/mL,1.28
same,NF-kB SEAP reporter activity,[2]; [6],0.98
same,NF-kB SEAP reporter activity,[2]; [7],1.2
same,NF-kB SEAP reporter activity,[2]; [8],1.22
COc1ccc(-n2nc(C(N)=O)c3c2C(=O)N(c2ccc(N4CCCCC4=O)cc2)CC3)cc1 (library stock concentration (final ~1000-fold dilution): 10 mM),NF-kB SEAP reporter activity,[2]; agonist: LPS (TLR4) 0.1 ug/mL,0.847
same,NF-kB SEAP reporter activity,[2]; [6],1.13
same,NF-kB SEAP reporter activity,[2]; [7],1.07
same,NF-kB SEAP reporter activity,[2]; [8],1.12
COc1ccc(-n2nc(C(N)=O)c3c2C(=O)N(c2ccc(N4CCCCC4=O)cc2)CC3)cc1,NF-kB SEAP reporter activity,[1]; [4],1.07
same,NF-kB SEAP reporter activity,[1]; [5],1.02
Nc1ccc(F)cc1NC(=O)c1ccc(CNC(=O)/C=C/c2cccnc2)cc1,NF-kB SEAP reporter activity,[1]; [4],1.65
same,NF-kB SEAP reporter activity,[1]; [5],1.89
Nc1ccc(F)cc1NC(=O)c1ccc(CNC(=O)/C=C/c2cccnc2)cc1 (library stock concentration (final ~1000-fold dilution): 10 mM),NF-kB SEAP reporter activity,[2]; agonist: LPS (TLR4) 0.1 ug/mL,3.7
same,NF-kB SEAP reporter activity,[2]; [6],3.18
same,NF-kB SEAP reporter activity,[2]; [7],0.749
same,NF-kB SEAP reporter activity,[2]; [8],1.53
COc1ccc(COc2cc3oc(=O)c4cc(C(C)O)ccc4c3cc2OC)cc1 (configuration not stated),NF-kB SEAP reporter activity,[1]; [4],1.21
same,NF-kB SEAP reporter activity,[1]; [5],1.09
COc1ccc(COc2cc3oc(=O)c4cc(C(C)O)ccc4c3cc2OC)cc1 (configuration not stated) (library stock concentration (final ~1000-fold dilution): 10 mM),NF-kB SEAP reporter activity,[2]; agonist: LPS (TLR4) 0.1 ug/mL,1.12
same,NF-kB SEAP reporter activity,[2]; [6],1.06
same,NF-kB SEAP reporter activity,[2]; [7],1.06
same,NF-kB SEAP reporter activity,[2]; [8],1.03
CC/C=C\C/C=C\C/C=C\C/C=C\C/C=C\C/C=C\CCC(=O)NCCNC(=O)c1ccccc1O,NF-kB SEAP reporter activity,[1]; [9],0.248
same,NF-kB SEAP reporter activity,[1]; [10],1.54
CC/C=C\C/C=C\C/C=C\C/C=C\C/C=C\C/C=C\CCC(=O)NCCNC(=O)c1ccccc1O (library stock concentration (final ~1000-fold dilution): 10 mM),NF-kB SEAP reporter activity,[3]; agonist: LPS (TLR4) 0.1 ug/mL,0.318
same,NF-kB SEAP reporter activity,[3]; [6],0.298
same,NF-kB SEAP reporter activity,[3]; [7],0.133
same,NF-kB SEAP reporter activity,[3]; [8],0.184
CC(C)C(NC(=O)C(CC(=O)O)NC(=O)C(CCCCN)NC(=O)C(N)CCCNC(=N)N)C(=O)NC(Cc1ccc(O)cc1)C(=O)O (configuration not stated) (library stock concentration (final ~1000-fold dilution): 10 mM),NF-kB SEAP reporter activity,[2]; agonist: LPS (TLR4) 0.1 ug/mL,1.27
same,NF-kB SEAP reporter activity,[2]; [6],1.1
same,NF-kB SEAP reporter activity,[2]; [7],1.19
same,NF-kB SEAP reporter activity,[2]; [8],1.17
CC(C)C(NC(=O)C(CC(=O)O)NC(=O)C(CCCCN)NC(=O)C(N)CCCNC(=N)N)C(=O)NC(Cc1ccc(O)cc1)C(=O)O (configuration not stated),NF-kB SEAP reporter activity,[1]; [4],1.14
same,NF-kB SEAP reporter activity,[1]; [5],0.967
